# Data published in the BET-seq Pho4 binding data (Le et al. 2018).
# The list shows a part of the results. Values were computed here from the reads of four pooled replicates and scatter widely.
# Biological target: T1, Pho4 (S. cerevisiae) (UniProt P07270)
# T1 sequence: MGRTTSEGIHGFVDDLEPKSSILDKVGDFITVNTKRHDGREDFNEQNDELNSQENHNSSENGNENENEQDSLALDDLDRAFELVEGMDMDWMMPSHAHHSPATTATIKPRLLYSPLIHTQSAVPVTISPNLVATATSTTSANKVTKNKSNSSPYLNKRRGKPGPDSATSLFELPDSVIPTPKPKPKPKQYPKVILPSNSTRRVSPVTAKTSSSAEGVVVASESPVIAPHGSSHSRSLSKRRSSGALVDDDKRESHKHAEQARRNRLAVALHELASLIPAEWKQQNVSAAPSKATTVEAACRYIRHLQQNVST
# Experiment: relative binding free energy (BET-seq); higher = weaker binding
# Conditions: reference: library average
row,Sequence,relative binding free energy [kcal/mol]
1,TTTTTCACGTGGAGAT,0.23
2,TATTGCACGTGAAGGC,0.22
3,GGCAGCACGTGGGTTA,-0.1
4,GTGAGCACGTGAAGTG,0.18
5,AGATGCACGTGTCTGT,0.01
6,TTCTGCACGTGATGAT,0.09
7,TAGTGCACGTGGGGAT,-0.11
8,CAGGGCACGTGGTATA,-0.2
9,GGATGCACGTGGGGGA,-0.04
10,GAATTCACGTGTGTTC,0.32
11,ATTGGCACGTGAGAAT,0.09
12,TGTATCACGTGTATTC,0.15
13,TCTAGCACGTGGGGGG,-0.18
14,GTTTGCACGTGTTTTT,0.15
15,TTAAGCACGTGAGGCT,0.02
16,GAGCGCACGTGGGTGA,-0.18
17,TAGGGCACGTGAGGTG,0.1
18,TTAAGCACGTGCGTTG,0
19,GGCATCACGTGCAAGG,0.32
20,TGATTCACGTGTCCGG,0.38
21,GTGGCCACGTGGATTT,0.04
22,CGGGTCACGTGGGCTG,-0.03
23,GTTTGCACGTGGTCTA,-0.06
24,AACGGCACGTGAGGAT,0.19
25,TTTTCCACGTGAGTGG,0.13
26,ATTGACACGTGCGTGC,-0.01

row,Sequence,relative binding free energy [kcal/mol]
1,CTGATCACGTGATGGT,0.19
2,GCGGGCACGTGTGTAA,0.02
3,CGGTTCACGTGCGGTT,0.21
4,TTCTACACGTGTTTTG,0.03
5,GCTTGCACGTGGTTTA,0.03
6,AGATGCACGTGGTAGA,0
7,GAGTTCACGTGTTTTA,0.32
8,TTGGTCACGTGAATTG,0.28
9,ATGGGCACGTGGCATG,-0.21
10,ATCGTCACGTGTGTCT,0.22
11,TGTTGCACGTGGGCTG,-0.16
12,TTGAGCACGTGTGGCA,-0.1
13,TTGTGCACGTGGTATT,-0.01
14,CTTATCACGTGGAAGG,0.18
15,GCTTTCACGTGTGACT,0.48
16,TAATGCACGTGTTAGA,-0.1
17,TGTCGCACGTGTCTTT,-0.03
18,TATGTCACGTGTGAAG,0.13
19,CGTGTCACGTGCAATG,0.26
20,GTCGTCACGTGTTGTC,0.21
21,GTTGGCACGTGAGTGC,0.13
22,TTTGCCACGTGAGTAT,0.05
23,TGAAACACGTGTGAGT,0.15
24,ATGGGCACGTGGCTTT,-0.15
25,AGTTGCACGTGTTGTC,-0.09
26,ATTAACACGTGTTCGT,-0.08

row,Sequence,relative binding free energy [kcal/mol]
1,GGTGGCACGTGATCAT,-0.14
2,AGTGTCACGTGTAAGG,0.14
3,CTGGTCACGTGGAGTA,0.02
4,GTTGGCACGTGGTTGA,-0.09
5,TTTATCACGTGCTTGC,0.16
6,TTTATCACGTGCTTTA,-0.03
7,TGGAGCACGTGGGCAG,-0.26
8,TGGTACACGTGGTAGG,0.16
9,CGGGTCACGTGTGCAA,0.31
10,ATTTTCACGTGAAGGT,0.44
11,TTTTTCACGTGGTTCA,0.21
12,TTGTCCACGTGAGTGA,0.24
13,AGGGGCACGTGTTCAG,-0.27
14,TTGAGCACGTGGTTGT,-0.04
15,GGGCACACGTGTGTCG,0.15
16,TTGGTCACGTGATCGT,0.13
17,TGATACACGTGTAAAG,0.12
18,TATGTCACGTGACGGT,0.13
19,TGTGTCACGTGCTTAT,0.02
20,TAATTCACGTGGAGTC,0.32
21,TTTGGCACGTGGAAGC,-0.03
22,CTATGCACGTGGAATT,0.17
23,TTGTACACGTGCTGTA,-0.02
24,AGGCGCACGTGCTGGT,-0.2
25,CTGTGCACGTGGTGAA,-0.12
26,GTTAGCACGTGGAAGT,0.16

row,Sequence,relative binding free energy [kcal/mol]
1,GTCGGCACGTGTTGCT,0.06
2,GATCACACGTGGTGGA,0.13
3,TTATTCACGTGACAGG,0.36
4,CGCTGCACGTGGTAGG,-0.09
5,AGGGCCACGTGGCGTA,-0.27
6,AAGTTCACGTGGTCTA,0.17
7,TTCGGCACGTGTCTGG,0.01
8,ATAAGCACGTGGTAGG,-0.16
9,TCATTCACGTGAGGTG,0.42
10,TGGGACACGTGTAATT,0.2
11,TGTTACACGTGAAGAG,0.42
12,AGGGGCACGTGTGGGT,-0.17
13,ATTCTCACGTGATATT,0.34
14,ATCGTCACGTGGAGTT,0.08
15,GTCTGCACGTGATGGG,0.24
16,TTAATCACGTGAGGCA,0.4
17,GATGACACGTGTGTTG,0.11
18,GTTAGCACGTGAAGGC,0.23
19,TCGTACACGTGTTGTG,0.01
20,TCGTCCACGTGGGGAT,0.07
21,ATAGGCACGTGGTCTG,-0.28
22,TTGTACACGTGTTCAA,0.08
23,AATGTCACGTGGATTA,0.24
24,GGCGGCACGTGGGGGC,-0.2
25,TTACTCACGTGAGTGG,0.22
26,GCGTTCACGTGTGATT,0.36

row,Sequence,relative binding free energy [kcal/mol]
1,TTTAGCACGTGGTGCA,-0.27
2,GGTTACACGTGATTGG,0.32
3,TTTCTCACGTGCTTGT,0.19
4,CGTAGCACGTGGTTAT,-0.09
5,AGGGGCACGTGGGCCA,-0.34
6,AGTGTCACGTGGTGCG,0.07
7,TTACTCACGTGGTGGT,0.16
8,GAGGGCACGTGGTTTG,-0.01
9,ATGGGCACGTGGGCTA,-0.4
10,TTAAGCACGTGTTGTC,0.06
11,ACGATCACGTGTATGT,0.18
12,GATGGCACGTGACGTT,0.14
13,TTAGTCACGTGGTGCT,-0.11
14,GGAAGCACGTGTTGGC,-0.04
15,CGCAGCACGTGTGGGT,-0.09
16,ATGATCACGTGGGTTT,0.08
17,TGTGTCACGTGCATGG,0.06
18,GTTACCACGTGTAGGT,-0.02
19,TTAACCACGTGTTGAG,0.03
20,AGAATCACGTGTGATT,0.14
21,CGAGGCACGTGGTTAG,-0.12
22,GTGTGCACGTGAGACG,0.23
23,GGCTGCACGTGAAGTT,0.26
24,CTGTACACGTGGGGGC,-0.22
25,GAGACCACGTGGTGTT,0.15
26,AGATTCACGTGGCTAG,0.23

row,Sequence,relative binding free energy [kcal/mol]
1,TGTGGCACGTGCGAGA,-0.14
2,ATTGGCACGTGGGGTG,-0.3
3,TGCGGCACGTGGAGCG,-0.1
4,TGAGTCACGTGAGCGA,0.23
5,TGTAGCACGTGGAGCG,-0.03
6,ACTGTCACGTGCTTGT,0
7,TGAAGCACGTGAAGGG,0.15
8,AACTGCACGTGAAGTG,0.38
9,TGGTTCACGTGCCGTT,0.19
10,CTATTCACGTGTATTT,0.08
11,AGACGCACGTGGTGTG,-0.06
12,AATAACACGTGGGAAG,0.05
13,TCGGGCACGTGGCGGG,-0.15
14,TGTATCACGTGGATGC,0.03
15,CATGACACGTGGGTTT,-0.08
16,GTTGTCACGTGCAGGC,0.06
17,AGGGCCACGTGGGTGC,-0.41
18,CTTGTCACGTGGTTGT,0.01
19,TAATGCACGTGGGTAT,-0.17
20,AAGGACACGTGCTGTT,0.07
21,TTCGGCACGTGAGAGC,0.2
22,ATAATCACGTGGGTGG,-0.09
23,GTATTCACGTGGCTTA,0.23
24,AAATGCACGTGAATAT,0.32
25,CTTGACACGTGGTGAA,-0.03
26,TATATCACGTGGGCGT,-0.04

row,Sequence,relative binding free energy [kcal/mol]
1,GGAGACACGTGTAGAG,0.06
2,TCCGCCACGTGGGGGG,-0.21
3,GTGGGCACGTGGTTTT,-0.14
4,TAAGACACGTGAGTTA,0.27
5,GTTTACACGTGCTTCG,0.2
6,AGTGTCACGTGGCATA,-0.08
7,TGTGTCACGTGTATCT,0.09
8,TCTTTCACGTGTGAAG,0.26
9,TGTCACACGTGGTGGC,-0.02
10,TGGTTCACGTGCGTTG,0.17
11,TAGTGCACGTGTGACT,-0.05
12,GTGAACACGTGGGAAG,-0.09
13,GTTGTCACGTGTTGGT,0.15
14,TGGGCCACGTGGTAAA,-0.02
15,CGTTGCACGTGGTTAT,-0.01
16,GTAGTCACGTGGGAGC,0.04
17,AACATCACGTGTGTGT,0.18
18,AGGGCCACGTGCGGTT,-0.13
19,TGTCGCACGTGATGGG,0.06
20,GGTGGCACGTGGGCTT,-0.11
21,GGGCACACGTGTGTTA,-0.02
22,TCGGCCACGTGTGGTT,0.01
23,AGGTTCACGTGTGTAG,0.2
24,GGAATCACGTGTTAGC,0.31
25,GGAGGCACGTGACTTG,0.12
26,TCTAGCACGTGTGGAT,0.01

row,Sequence,relative binding free energy [kcal/mol]
1,TTATTCACGTGTGTAT,0.23
2,ATGATCACGTGATTTA,0.08
3,GCGTGCACGTGGAGGG,-0.1
4,CTTTGCACGTGCATGT,0.05
5,TTTTCCACGTGCAGGG,0.04
6,TTGATCACGTGGTTCA,0.18
7,TATGACACGTGCGTTA,-0.12
8,GTTCTCACGTGTCGGT,0.43
9,AGTGGCACGTGGGCTT,-0.27
10,GCCAGCACGTGTGTGG,-0.06
11,GTGGTCACGTGAGTAG,0.2
12,TTTTGCACGTGTGGAT,0.07
13,TGAGGCACGTGTTCGC,0.11
14,TGGTCCACGTGAGGTA,0.1
15,TTGTTCACGTGATCAG,0.28
16,TAAGGCACGTGAATTG,0.18
17,GTGTTCACGTGGGCGG,0.2
18,AGTCTCACGTGACGGT,0.38
19,TGTAGCACGTGTCGTA,-0.09
20,TGGGGCACGTGTCATA,-0.23
21,CTCGACACGTGGGGGT,-0.13
22,ATCTACACGTGGGCGG,0.06
23,GCGGTCACGTGTTATA,0.21
24,GTAATCACGTGTCGGG,0.25
25,TATTTCACGTGTCAAG,0.23
26,ATGGACACGTGCGTAT,0.04

row,Sequence,relative binding free energy [kcal/mol]
1,GGGAACACGTGGTAGG,-0.08
2,GTCTGCACGTGTGTAG,0.02
3,TTATGCACGTGAGAGA,0.17
4,AGTAACACGTGTTTTA,-0.13
5,CGTTACACGTGTGTAT,0.1
6,TAATACACGTGTTATT,-0.11
7,TATCACACGTGGGTTG,-0.12
8,TATCTCACGTGGCGGT,0.23
9,AAGGACACGTGGGCTT,-0.01
10,ATAGGCACGTGGTGAA,-0.13
11,TACATCACGTGTGGGA,0.31
12,TTTGACACGTGGTCGA,0.05
13,GGGGGCACGTGTGATA,0.12
14,GCGAGCACGTGGAGAT,0.06
15,TGTTCCACGTGGCGGA,-0.01
16,TTAGCCACGTGGGTGG,-0.22
17,TATGCCACGTGATTGG,0.06
18,CAGAGCACGTGGTGTT,-0.11
19,GTGGTCACGTGACCGG,0.15
20,TGATGCACGTGGTACT,-0.13
21,TCTGTCACGTGGCTGG,0.06
22,GGCTGCACGTGTCGTG,-0.03
